This note sets out measurements from article PMC6919601, “Identification of Plasmodium dipeptidyl aminopeptidase allosteric inhibitors by high throughput screening” (PLoS ONE, 2019).

SMILES strings stand for the structures. Out of some 110,000 compounds screened, about 230 (0.21%) showed an effect of 50% or more. The list shows a part of the results.
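Further: 30 min substrate incubation versus DMSO and 10 µM JCP410 controls.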

DPAP1, sequence (Q8IIJ9 whole entry, looked up): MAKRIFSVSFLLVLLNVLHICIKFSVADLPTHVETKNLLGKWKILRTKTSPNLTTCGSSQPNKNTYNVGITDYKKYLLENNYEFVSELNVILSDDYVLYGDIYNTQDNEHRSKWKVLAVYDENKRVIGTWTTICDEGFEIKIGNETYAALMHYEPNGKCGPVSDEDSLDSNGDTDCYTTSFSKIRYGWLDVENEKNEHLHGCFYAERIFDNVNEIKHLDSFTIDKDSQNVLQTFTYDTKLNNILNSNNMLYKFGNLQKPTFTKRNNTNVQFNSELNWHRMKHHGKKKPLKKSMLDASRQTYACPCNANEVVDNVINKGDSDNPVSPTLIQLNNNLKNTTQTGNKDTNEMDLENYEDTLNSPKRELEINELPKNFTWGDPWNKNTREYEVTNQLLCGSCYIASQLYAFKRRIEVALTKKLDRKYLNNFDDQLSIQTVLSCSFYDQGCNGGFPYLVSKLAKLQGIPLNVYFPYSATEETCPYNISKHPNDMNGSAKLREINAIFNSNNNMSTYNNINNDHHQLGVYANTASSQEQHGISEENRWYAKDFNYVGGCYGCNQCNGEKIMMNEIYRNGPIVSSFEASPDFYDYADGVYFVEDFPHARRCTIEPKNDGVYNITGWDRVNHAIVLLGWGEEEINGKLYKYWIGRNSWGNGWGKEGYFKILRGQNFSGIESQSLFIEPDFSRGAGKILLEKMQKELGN

The assay has as its target DPAP1 (Plasmodium falciparum, UniProt Q8IIJ9). Nature of the assay: primary screen, percent inhibition; read by cleavage of a fluorogenic dipeptide substrate; higher = more effect of the substance. Also noted: species or system P. falciparum D10 trophozoite lysates; single well.
With `Cc1ccc(N2C(=O)CC(NC3CCCC(C)C3C)C2=O)cc1` (stereo not shown), the “% Inhibition @ 10 uM” value was 5.39%. For `COc1ccc(/C=C(/NC(=O)c2cccc(Br)c2)C(=O)O)cc1`, the “% Inhibition @ 10 uM” value came to 7.03%.

For `CCOC(=O)N1CCN(C(=O)C2CCN(S(C)(=O)=O)CC2)CC1`, the “% Inhibition @ 10 uM” value is recorded as -2.99%. Turning to `CC(CNc1nn2nnnc2c2ccccc12)c1ccccc1` (stereo not shown), the “% Inhibition @ 10 uM” value was -1.16%.

Turning to `O=C(Nc1nnc(Cc2c[nH]c3ccccc23)s1)c1ccc(Cl)cc1Cl`, the “% Inhibition @ 10 uM” value is recorded as 16.3%. For `NC(=O)Cn1cnc2c(oc3ccccc32)c1=O`, the “% Inhibition @ 10 uM” value was -2.67%. As to `O=C(CCN1CCCCC1)C12CC3CC(CC(C3)C1)C2`, the “% Inhibition @ 10 uM” value is on record as 4.15%. As to `Cc1cccc(CCNS(=O)(=O)c2cc(Br)cnc2N)c1`, the “% Inhibition @ 10 uM” value was 3.92%. As for `Clc1ccc(-c2noc3ncnc(N4CCN(c5ccccn5)CC4)c23)cc1`, the “% Inhibition @ 10 uM” value is recorded as 12.6%. The value for `O=C(CCCC(=O)Nc1ccc(F)c(F)c1)Nc1ccc(F)c(F)c1` was -0.105%; that for `CCOC(=O)C1CCCCN1Cc1ccc(SC)cc1` (stereo not shown) was -3.72%.

For `Cc1ccc(C(=N)NOC(=O)c2ccccc2)cc1`, the “% Inhibition @ 10 uM” value is listed as -1.26%. On to `CCCOc1ccc(C2C(C(=O)OC)=CN(C)C=C2C(=O)OC)cc1`, for which the “% Inhibition @ 10 uM” value is listed as 3.45%.

For `COc1cc(SC#N)ccc1/N=C/c1c(C)nn(-c2ccc(Cl)cc2)c1O`, the “% Inhibition @ 10 uM” value is -2.8%. With `Cc1c(CNCCCOC(C)C)c(C(=O)O)c(C)n1Cc1ccccc1F`, the “% Inhibition @ 10 uM” value is on record as -1.92%.

Regarding `CCCCNC(=O)C1c2ccccc2C(=O)N(C)C1c1cccs1` (stereo not shown), the “% Inhibition @ 10 uM” value is recorded as -0.972%. As for `Cc1ccc2nc(NC(=O)C3CCCCC3C(=O)O)sc2c1` (stereo not shown), the “% Inhibition @ 10 uM” value is -3.04%.

For `Cc1cccc(/C(C#N)=C/c2ccc(N(C)C)cc2)c1`, the “% Inhibition @ 10 uM” value is 0.385%.

Take `COc1ccc(C(=O)CSc2ccc3nnc(CCNS(=O)(=O)c4ccc(C)cc4)n3n2)cc1`: the “% Inhibition @ 10 uM” value came out at 5.6%. `COc1ccc(C(=O)Nc2ccc(Cl)cc2C)c(OC)c1`: the “% Inhibition @ 10 uM” value is listed as 0.843%. For `Cc1ccc2c(c1)c1c3n2CCN(C(N)=O)C3CCC1` (stereo not shown), the “% Inhibition @ 10 uM” value is recorded as -0.351%.

Consider `CN(C)CCCNC1CCCCC1C1=CCCCC1` (stereo not shown), for which the “% Inhibition @ 10 uM” value amounted to 4.7%. Take `CCOC(=O)N1CCN(C(=S)NC2CCCCC2)CC1`: the “% Inhibition @ 10 uM” value worked out at 2.17%. The value for `O=C1c2ccccc2CS(=O)(=O)c2ccccc21` was -4.54%; that for `COc1cccc(Cn2c(C)c(CNC(C)CCc3ccccc3)c(C(=O)O)c2C)c1` (stereo not shown) was 16.3%; that for `Cc1ccccc1S(=O)(=O)Cc1ccc(C(=O)NCCCN(C)C2CCCCC2)o1` was -1.28%. With `Cc1nc2cc(S(=O)(=O)N3CCC(C(=O)NC4CCCCC4C)CC3)ccc2n1C1CCCC1` (stereo not shown), the “% Inhibition @ 10 uM” value amounted to 4.79%. In the case of `Cc1cccnc1-c1ccc(C(=O)NC(Cc2c(F)cccc2F)C(=O)NCC#N)cc1` (stereo not shown), the “% Inhibition @ 10 uM” value is recorded as -6.56%.
